Results taken from PubChem BioAssay AID1345083 (National Center for Advancing Translational Sciences (NCATS), 2018).
Among all 94,000 compounds or so, about 6,200 (6.6%) were called active. The inconclusive results got no clear call from the source; some entries with a clear call stand among them for comparison. Calls follow the shape of the dose curve; as a rule, active = well fitted inhibition curve with a large enough effect; inconclusive = small, poorly fitted or top-dose-only effect; inactive = flat fitted curve, though single readings scatter. Where the call is inconclusive, the potency comes from a doubtful curve fit. Some compounds were tested as several samples or in several runs, with calls that do not always agree.

Test: Cytotoxic Profiling in HEK 293 Cell Line of Diverse Libraries Using Quantitative High-Throughput Screening; also: nearly all actives have a fitted effect of over 60% in size
Settings: HEK 293 viability, ATP luminescence (CellTiter-Glo), 48-72 h; series mostly up to 115 µM
Method in brief: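 HEK 293 cells seeded at 250 cells/well were exposed to compound for 48 or 72 hr at 37 degree Celsius. Viability taken as ATP content by CellTiter-Glo luminescence.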
Potency is read from the fitted curve at half-maximal effect; tags tell the direction and shape of the fitted curve.

**Q.** For `COCC1CN(Cc2cccc(C(F)(F)F)c2)CC12CCNCC2` (stereo not given), which Potency is on record?
**A.** active: 89.1 µM

**Q.** With `Clc1ccc2nc(N3CCC(NC4CCSC4)CC3)sc2c1` (stereo not given) as the compound, how does the Potency read?
**A.** inconclusive: 39.8 µM [inhibitor, full curve, poor fit]

**Q.** For `Cc1cc(C)cc(NC(=O)c2ccc3c(c2)N(C)C2CCCCCN2C3=O)c1` (stereo not given), which Potency is on record?
**A.** inconclusive: 50.1 µM [inhibitor, partial curve, poor fit]

**Q.** With `O=c1[nH]c(C2CCCN(Cc3ccsc3)C2)nn1-c1ccc(Cl)cc1` (stereo not given) as the compound, how does the Potency read?
**A.** inconclusive: 70.8 µM [inhibitor, partial curve]

**Q.** With `CCN(CC)C(=O)N1CC(Oc2ccccc2-c2nc(-c3cnccn3)no2)C1` as the compound, how does the Potency read?
**A.** inconclusive: 100 µM [inhibitor, single point]

**Q.** With `COc1cc(NC(=O)N2C[C@@H]3C[C@H](C2)c2ccc(NC(=O)c4ccc(F)cc4)c(=O)n2C3)cc(OC)c1` as the compound, how does the Potency read?
**A.** inactive

**Q.** Which Potency does the source give for `O=C(NCCc1ccccc1)C1CC(c2ccccc2)CN(C(=O)c2ccccc2F)C1` (stereo not given) here?
**A.** inconclusive: 50.1 µM [inhibitor, partial curve, poor fit]

**Q.** For `OCC1CCN(c2ccc(-c3nc(CCCc4ccccc4)no3)cn2)CC1`, which Potency is on record?
**A.** inconclusive: 44.7 µM [inhibitor, partial curve, poor fit]

**Q.** With `O=C(NC[C@H]1Cn2ccnc2CO1)c1ccc(C(F)(F)F)cc1` as the compound, how does the Potency read?
**A.** inconclusive: 126 µM [inhibitor, single point]

**Q.** Which Potency does the source give for `CC(C)(C)OC(=O)N1CC(N2CCc3ccccc32)C1` here?
**A.** inactive

**Q.** For `O=C1CCCCCN1C1CCN(Cc2cccc3ccccc23)CC1`, which Potency is on record?
**A.** active: 79.4 µM

**Q.** For `Cc1ccc(Nc2ccnc(N3CCCC3C(=O)NCC(F)F)n2)cc1` (stereo not given), which Potency is on record?
**A.** active: 39.8 µM

**Q.** Which Potency does the source give for `CCOC(=O)c1cccc(NC(=O)c2c(OCC)cc(=O)n3c2CCCC3)c1` here?
**A.** inconclusive: 17.8 µM [inhibitor, full curve, poor fit]

**Q.** Which Potency does the source give for `O=C(CCNc1cnc2cnccn12)NCc1ccc(F)c(Cl)c1` here?
**A.** inactive

**Q.** Which Potency does the source give for `CCCN(CC1CC1)C(=O)c1ccc2c(c1)C(O)CCCCCN2CCOC` (stereo not given) here?
**A.** active: 79.4 µM

**Q.** For `COc1cccc(CN2CCCC(C(=O)NCc3ccccc3)CCNC(=O)CC2)c1` (stereo not given), which Potency is on record?
**A.** inactive

**Q.** For `Cc1ccccc1-c1cnc2[nH]cc(CC(=O)NC3CCOCC3)c2c1`, which Potency is on record?
**A.** inconclusive: 100 µM [inhibitor, partial curve, poor fit]

**Q.** With `CN1CC(n2ccnc2-c2cnc(-c3cccc4ccccc34)nc2)CCC1=O` (stereo not given) as the compound, how does the Potency read?
**A.** inactive

**Q.** With `CN1CCCC1c1nc(C2CN(C(=O)c3cccn3C)C2)no1` (stereo not given) as the compound, how does the Potency read?
**A.** inactive

**Q.** For `Cc1ccc(CNC(=O)[C@H]2CCC[C@H]2NC(=O)c2ccncc2)o1`, which Potency is on record?
**A.** inconclusive: 89.1 µM [inhibitor, single point]

**Q.** For `CSc1ccc(-c2nc(CN3CCOCC(CN(C)C)C3)c(C)o2)cc1` (stereo not given), which Potency is on record?
**A.** inconclusive: 79.4 µM [inhibitor, single point]

**Q.** Which Potency does the source give for `O=C1CCCN1Cc1noc(-c2cccc(Cl)c2)n1` here?
**A.** inactive

**Q.** For `CN1C(=O)CCC2(CNC(=O)c3ccnn3C)CCC=C12` (stereo not given), which Potency is on record?
**A.** inactive

**Q.** With `O=[S+]([O-])(c1ccc(Br)cc1)c1nnn2c1nc(N1CCC(F)CC1)c1ccccc12` as the compound, how does the Potency read?
**A.** inactive

**Q.** With `c1ccc(-c2nc(-c3ccncc3)no2)c(OC2CCNC2)c1` (stereo not given) as the compound, how does the Potency read?
**A.** inconclusive: 50.1 µM [inhibitor, partial curve, poor fit]

**Q.** For `O=C(c1ccc(C(F)(F)F)cc1)N1CCCC(c2nn(-c3ccccc3)c(=O)[nH]2)C1` (stereo not given), which Potency is on record?
**A.** inconclusive: 70.8 µM [inhibitor, partial curve, poor fit]

**Q.** Which Potency does the source give for `COc1ccc(C(=O)N2CCC(N3C[C@H](Oc4ccccc4)[C@@H]3c3ccncc3)CC2)cc1` here?
**A.** inconclusive: 50.1 µM [inhibitor, partial curve, poor fit]

**Q.** With `CC(=O)N1CCC(Nc2cc(-c3ccc(Cl)cc3)nc3c(C)noc23)CC1` as the compound, how does the Potency read?
**A.** inconclusive: 100 µM [inhibitor, partial curve, poor fit]

**Q.** For `Cc1ccc(C(=O)N2CCC3(CC2)NC(=O)N(c2ccccc2)N3)cc1C`, which Potency is on record?
**A.** inconclusive: 31.6 µM [inhibitor, full curve, poor fit]

**Q.** For `COCCN1Cc2ccc(Nc3cccnc3)nc2C(C)(C(=O)Nc2ccccc2C)C1` (stereo not given), which Potency is on record?
**A.** inconclusive: 100 µM [inhibitor, partial curve, poor fit]

**Q.** For `CCOC(=O)C1(Cc2cccc(C(F)(F)F)c2)CCN(Cc2cc(C(C)C)n[nH]2)CC1`, which Potency is on record?
**A.** active: 25.1 µM

**Q.** With `CCOC(=O)C1(Cc2ccc(OC)cc2)CCN(C(=O)C(C)Oc2ccccc2)CC1` (stereo not given) as the compound, how does the Potency read?
**A.** inconclusive: 22.4 µM [inhibitor, full curve, poor fit]

**Q.** Which Potency does the source give for `COc1ccc(-n2nc(C3CCN(Cc4ccc(C)cc4)CC3)[nH]c2=O)cc1` here?
**A.** active: 39.8 µM

**Q.** With `Cc1ccc2[nH]c(C(=O)N3CCC(=O)N(CC4CC4)C(C(C)C)C3)c(C)c2c1` (stereo not given) as the compound, how does the Potency read?
**A.** inconclusive: 100 µM [inhibitor, single point]

**Q.** For `Cn1cc(-c2ccccc2)cc1C(=O)N1CCCC1`, which Potency is on record?
**A.** inconclusive: 89.1 µM [inhibitor, single point]

**Q.** Which Potency does the source give for `O=C(c1cccc(Cl)c1)N1CCN(Cc2ccccc2-c2ccccc2F)CC1` here?
**A.** inconclusive: 50.1 µM [inhibitor, partial curve, poor fit]

**Q.** With `COCCN1Cc2ccc(Nc3ccc(OC)cc3)nc2C(C)(C(=O)NC2CCC2)C1` (stereo not given) as the compound, how does the Potency read?
**A.** inconclusive: 79.4 µM [inhibitor, partial curve, poor fit]

**Q.** With `COc1cccc(C(=O)N2CCC(N3C(=O)c4c(c(C)nn4-c4ccccc4)C3C3CC3)C2)c1` (stereo not given) as the compound, how does the Potency read?
**A.** active: 35.5 µM

**Q.** With `Cc1cc(Cn2cc3c4c(cccc42)[C@H](CC(C)C)N[C@H](C(=O)NCCN2CCOCC2)C3)no1` as the compound, how does the Potency read?
**A.** inconclusive: 79.4 µM [inhibitor, partial curve, poor fit]

**Q.** For `CC(C)(C)c1ccnc(N[C@H]2CO[C@H]3[C@@H]2OC[C@H]3OC(=O)Nc2cccc(C(F)(F)F)c2)n1`, which Potency is on record?
**A.** active: 39.8 µM

**Q.** For `COc1cc(-c2ccnc3nc(Cc4cc(F)cc(F)c4)nn23)cc(OC)c1OC`, which Potency is on record?
**A.** inconclusive: 35.5 µM [inhibitor, partial curve, poor fit]

**Q.** Which Potency does the source give for `Cc1cc(C)c(CNC(=O)c2cc(-c3ccccc3C)cc3c2OCCN3C)c(=O)[nH]1` here?
**A.** active: 89.1 µM

**Q.** For `Cc1ccc(-c2ccccc2CN2CCN([S+](=O)([O-])c3c(C)noc3C)CC2)cc1Cl`, which Potency is on record?
**A.** inconclusive: 28.2 µM [inhibitor, full curve, poor fit]

**Q.** Which Potency does the source give for `COc1cc(Cl)ccc1C(=O)NC1CCN(c2cc(C(F)(F)F)nc(C)n2)CC1` here?
**A.** inconclusive: 22.4 µM [inhibitor, full curve]

**Q.** With `O=C(C1CCCCC1)N1CCC(OC2CCN(Cc3ccccc3)CC2)CC1` as the compound, how does the Potency read?
**A.** inconclusive: 89.1 µM [inhibitor, single point]

**Q.** With `COC(=O)CCC(=O)N1CCOC(CCCC(C)C)C1` (stereo not given) as the compound, how does the Potency read?
**A.** inconclusive: 89.1 µM [inhibitor, single point]

**Q.** For `CC(C)(C)C(=O)N1CCCC(c2nn(-c3cccc(Cl)c3)c(=O)[nH]2)C1` (stereo not given), which Potency is on record?
**A.** inconclusive: 50.1 µM [inhibitor, partial curve, poor fit]

**Q.** Which Potency does the source give for `CC(C)CCNC[C@H]1O[C@H](Cc2cc(CN3CCCCC3)on2)CC[C@@H]1O` here?
**A.** inconclusive: 79.4 µM [inhibitor, partial curve, poor fit]

**Q.** Which Potency does the source give for `CCc1nc2c(c(-c3ccc(Cl)cc3)n1)CCN(Cc1cccn1C)CC2` here?
**A.** inconclusive: 39.8 µM [inhibitor, partial curve, poor fit]

**Q.** With `Cc1ccccc1C(=O)N1CCC(CCC(=O)N2CCN(C(C)C)CC2)CC1` as the compound, how does the Potency read?
**A.** inactive

**Q.** Which Potency does the source give for `Cc1ccsc1-c1nc(C2CC(=O)N(C3CCCCC3)C2)no1` (stereo not given) here?
**A.** active: 79.4 µM

**Q.** With `COc1ccc(F)cc1-c1cccc(C(=O)O)c1` as the compound, how does the Potency read?
**A.** inactive

**Q.** Which Potency does the source give for `Cc1ccc(NC(=O)N[C@@H]2C=C(C(=O)N[C@@H](Cc3ccc(O)cc3)C(N)=O)C[C@@H](O)[C@@H]2O)cc1` here?
**A.** inactive

**Q.** For `COc1ccccc1-c1ccc(CN2CCCCC2C(=O)N(C)C)cc1` (stereo not given), which Potency is on record?
**A.** inconclusive: 56.2 µM [inhibitor, partial curve, poor fit]

**Q.** For `O=C(c1ccc(F)cc1F)N1CCN(c2cc(-c3ccc(F)cc3)[nH]n2)CC1`, which Potency is on record?
**A.** active: 39.8 µM

**Q.** With `CN1CC(=O)N(C2CCNCC2)Cc2c(NCCCc3ccccc3)ncnc21` as the compound, how does the Potency read?
**A.** inconclusive: 39.8 µM [inhibitor, partial curve, poor fit]

**Q.** Which Potency does the source give for `CN(C)c1cccc(C(=O)N2CCC3(CC2)NC(=O)N(c2cccc(F)c2)N3)c1` here?
**A.** inconclusive: 3.55 µM [inhibitor, full curve, poor fit]

**Q.** Which Potency does the source give for `Cc1ccc(Nc2ccnc(N3CCCC3C(=O)N3CCCC(C)C3)n2)cc1` (stereo not given) here?
**A.** inconclusive: 50.1 µM [inhibitor, partial curve, poor fit]

**Q.** With `CN1CC(=O)N(C2CCCNC2)Cc2c(NC3CCCCC3O)ncnc21` (stereo not given) as the compound, how does the Potency read?
**A.** inactive

**Q.** Which Potency does the source give for `COc1ccccc1N1CCN([C@@H]2[C@H](O)[C@H](CO)O[C@@H]2CNS(=O)(=O)c2ccc(Cl)cc2)CC1` here?
**A.** inconclusive: 89.1 µM [inhibitor, single point]

**Q.** Which Potency does the source give for `Cc1cc(C(=O)N2CCC(n3c(=O)[nH]c4ccccc43)CC2)ccc1Cl` here?
**A.** inconclusive: 79.4 µM [inhibitor, partial curve]

**Q.** With `Cc1cc(Cn2cc3c4c(cccc42)[C@H](CC(C)C)N[C@H](C(=O)NCCN2CCCC2)C3)no1` as the compound, how does the Potency read?
**A.** active: 28.2 µM

**Q.** Which Potency does the source give for `O=C(c1ccc(N2CC3CC(C2)[C@H]2CCCC(=O)N2C3)nc1)N1CC=C(c2ccccc2)CC1` (stereo not given in full) here?
**A.** inconclusive: 50.1 µM [inhibitor, partial curve, poor fit]

**Q.** With `Fc1ccccc1CN1CCNc2cnc(Nc3ccccc3)cc2C1` as the compound, how does the Potency read?
**A.** active: 100 µM

**Q.** With `O=C(CCc1nc2ccccc2s1)N1CCC(Cc2nc(C3CC3)n[nH]2)CC1` as the compound, how does the Potency read?
**A.** inactive
